The other results are listed elsewhere or left out. Values were computed here from the reads of four pooled replicates and scatter widely.
Target: T1, Pho4 (S. cerevisiae) (UniProt P07270)
T1 sequence: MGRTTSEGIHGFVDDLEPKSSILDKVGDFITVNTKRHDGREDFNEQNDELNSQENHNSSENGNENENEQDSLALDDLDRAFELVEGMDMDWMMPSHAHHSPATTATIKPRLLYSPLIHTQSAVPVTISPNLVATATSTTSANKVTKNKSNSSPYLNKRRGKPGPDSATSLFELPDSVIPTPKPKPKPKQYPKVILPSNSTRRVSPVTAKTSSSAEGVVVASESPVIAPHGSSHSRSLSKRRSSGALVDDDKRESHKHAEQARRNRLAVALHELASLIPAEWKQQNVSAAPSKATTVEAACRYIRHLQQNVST
Assay: relative binding free energy (BET-seq); higher = weaker binding
Conditions: reference: library average

Row | Sequence | relative binding free energy [kcal/mol]
1 | GCGGTCACGTGGTTTG | 0.24
2 | ATCGACACGTGAGGTT | 0.18
3 | TATGCCACGTGGTCGT | -0.16
4 | TTTTGCACGTGTGAAA | 0.19
5 | TCGGGCACGTGATCGG | -0.01
6 | AAGTACACGTGAGTAT | 0.33
7 | ACGTGCACGTGTGCGT | -0.01
8 | CGGTACACGTGGGGGG | -0.08
9 | ATGGACACGTGTTAAT | 0.07
10 | GTGTGCACGTGAGCTA | 0.06
11 | TTGTACACGTGGATTG | 0.04
12 | CGTATCACGTGGTGTA | -0.01
13 | CTTGTCACGTGACGTG | 0.1
14 | TGTAGCACGTGATGTC | 0.11
15 | AAAAACACGTGATGGT | 0.22
16 | TGTTACACGTGATGCA | 0.14
17 | TTATTCACGTGGAATC | 0.26
18 | TGTAGCACGTGTCTGG | -0.07
19 | GAATTCACGTGTGGCG | 0.18
20 | GCCGCCACGTGGGGGG | -0.29
21 | TGATCCACGTGGAGGT | -0.13
22 | AAGTACACGTGGCGTG | 0.05
23 | TTTTGCACGTGCTAGA | -0.16

Row | Sequence | relative binding free energy [kcal/mol]
24 | ATCGGCACGTGGGGCT | -0.23
25 | GAGTGCACGTGGCATG | -0.11
26 | GTAGGCACGTGTTTGC | -0.02
27 | ATGGGCACGTGTCGTG | -0.1
28 | GAAGACACGTGTGTGT | 0.11
29 | AAGTGCACGTGTGTAC | 0.11
30 | TGAGTCACGTGGGCAT | -0.05
31 | ATTTGCACGTGAGCGG | 0.1
32 | TGTTGCACGTGTCGTT | 0.03
33 | AGAGCCACGTGAGATG | 0.35
34 | GTACGCACGTGCGGGG | -0.17
35 | TTAGGCACGTGGGTAT | -0.22
36 | TAGGGCACGTGTTCGC | -0.16
37 | TTTATCACGTGGGGTA | -0.01
38 | ATTTACACGTGGTGCG | 0
39 | ATTGTCACGTGCTTGA | 0.01
40 | AATGGCACGTGGTGGG | -0.11
41 | ATCGTCACGTGAGCGG | 0.21
42 | AAGGACACGTGGATGG | 0.03
43 | ATAGTCACGTGTTTTG | 0.06
44 | TTTCGCACGTGGTAAT | -0.09
45 | ATTGTCACGTGGTTTA | -0.11
46 | GTGGACACGTGATTAT | 0.21

Row | Sequence | relative binding free energy [kcal/mol]
47 | TGGGGCACGTGATAGT | 0.05
48 | TGGATCACGTGTTATG | 0.36
49 | AGCTTCACGTGTTAAG | 0.34
50 | TGGGGCACGTGCAAAG | -0.01
51 | AGTAACACGTGCGTGG | -0.08
52 | TTGTACACGTGGTCGA | 0.05
53 | CGCATCACGTGTGGTG | 0.05
54 | CGGGGCACGTGATAGA | 0.06
55 | ATTGGCACGTGTGCTT | -0.07
56 | GAATGCACGTGGTTGA | -0.03
57 | TTTTGCACGTGGGGCT | -0.03
58 | TTCTTCACGTGCGGTT | 0.32
59 | TATGACACGTGTTAGC | 0.07
60 | GGCTGCACGTGAAAGT | 0.33
61 | ATTAACACGTGTATGT | -0.04
62 | GGTATCACGTGTTTCT | 0.24
63 | GGCTGCACGTGCAGGG | 0.03
64 | ATATGCACGTGAGATG | 0.2
65 | ATTCACACGTGGGTTT | 0.05
66 | TTGTTCACGTGGAAGT | 0.46
67 | ATTGGCACGTGACATT | -0.09
68 | AGTAACACGTGTGTAG | 0.09
69 | GGCTTCACGTGTAAGT | 0.28

Row | Sequence | relative binding free energy [kcal/mol]
70 | TTTTACACGTGGGTGT | -0.01
71 | AAAGGCACGTGTAGAG | 0.02
72 | TTGATCACGTGGATCT | 0.18
73 | AGCGTCACGTGTAATG | 0.14
74 | CGCGTCACGTGTTTGA | 0.21
75 | TGTTCCACGTGTTTTC | 0.1
76 | GTATCCACGTGGGGTT | -0.2
77 | GGTGGCACGTGGTCTG | -0.14
78 | GGACTCACGTGGGTAT | 0.07
79 | AGTCTCACGTGGATGT | 0.18
80 | GGGGCCACGTGTGCAG | 0
81 | ATAAGCACGTGGAAGT | -0.02
82 | GGAAGCACGTGAGGCG | 0.12
83 | GTCTGCACGTGGACGG | 0.07
84 | TTAAGCACGTGAAGTG | 0.11
85 | AGAGTCACGTGCTTTA | 0.17
86 | CGGGGCACGTGCTGGC | -0.17
87 | AAGTTCACGTGTTGAC | 0.49
88 | GTGTACACGTGGGCCG | -0.12
89 | CTTTACACGTGGATTT | 0.11
90 | GCGTGCACGTGGTGAA | 0.15
91 | TCTTTCACGTGACGGG | 0.34
92 | TGTTCCACGTGGCAGG | 0.06

Row | Sequence | relative binding free energy [kcal/mol]
93 | GTACTCACGTGTGAGG | 0.19
94 | TTGGTCACGTGTGGAC | 0.12
95 | GTAATCACGTGATGCG | 0.26
96 | GCGGGCACGTGTATAT | 0.07
97 | TAAAACACGTGGGGTA | -0.09
98 | AGTATCACGTGTGAGT | 0.16
99 | GTTTGCACGTGAACGT | 0.24
100 | AGTTTCACGTGGAGAT | 0.18
101 | CTTGACACGTGGGTAT | -0.06
102 | GGGTTCACGTGCATGA | 0.26
103 | GATTTCACGTGAATAG | 0.5
104 | AAGGGCACGTGATTTG | 0.07
105 | TGTTCCACGTGGTGGC | -0.02
106 | TGAGGCACGTGTATTT | -0.03
107 | TCGTGCACGTGTGTCG | 0.02
108 | TTTCACACGTGGTGAG | 0.08
109 | AGGGCCACGTGGCGAG | -0.23
110 | TTATGCACGTGTACGT | -0.05
111 | GGAGGCACGTGCAGCG | -0.13
112 | GTAGCCACGTGGTGAT | 0.05
113 | CACGTCACGTGGGTGT | -0.16
114 | TTGACCACGTGGTGGT | -0.12
115 | GAATACACGTGGGATG | -0.01
